Measurements: PMC9911399, “Two distinct binding modes provide the RNA-binding protein RbFox with extraordinary sequence specificity”
Residue numbers refer to the chain shown, from its start. Some of the results follow.

T1: RBFOX1 RRM RbFoxmut (Fox-RRM*) (Homo sapiens, UniProt Q9NWB1 109-208, R118D;E147R;N151S;E152T)
T1 sequence: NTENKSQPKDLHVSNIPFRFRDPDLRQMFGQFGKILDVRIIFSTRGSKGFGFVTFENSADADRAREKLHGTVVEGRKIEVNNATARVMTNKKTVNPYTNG

B1: UAGACGC (DNA:RNA)
RNA: GGGAGACCGGAAUUCAGAUUGUCCUAGACGCUUAAAUCCCGUCGUAGCCACCA
DNA 1: CAATCTGAATTCCGGTCTCCC
DNA 2: TGGTGGCTACGACGGGATT
B2: AUGUACC (DNA:RNA)
RNA: B1 RNA with U25A, A26U, A28U, C29A, G30C
DNA 1: CAATCTGAATTCCGGTCTCCC
DNA 2: TGGTGGCTACGACGGGATT
B3: UAGAGCC (DNA:RNA)
RNA: B1 RNA with C29G, G30C
DNA 1: CAATCTGAATTCCGGTCTCCC
DNA 2: TGGTGGCTACGACGGGATT
B4: GAUGGAG (DNA:RNA)
RNA: B1 RNA with U25G, G27U, A28G, C29G, G30A, C31G
DNA 1: CAATCTGAATTCCGGTCTCCC
DNA 2: TGGTGGCTACGACGGGATT
B5: CAGAAUU (DNA:RNA)
RNA: B1 RNA with U25C, C29A, G30U, C31U
DNA 1: CAATCTGAATTCCGGTCTCCC
DNA 2: TGGTGGCTACGACGGGATT
B6: ACUCUGG (DNA:RNA)
RNA: B1 RNA with U25A, A26C, G27U, A28C, C29U, C31G
DNA 1: CAATCTGAATTCCGGTCTCCC
DNA 2: TGGTGGCTACGACGGGATT
B7: CGCCUCG (DNA:RNA)
RNA: GGGAGACCGGAAUUCAGAUUGUCCCGCCUCGUUAAAUCCCGUCGUAGCCACCA
DNA 1: CAATCTGAATTCCGGTCTCCC
DNA 2: TGGTGGCTACGACGGGATT
B8: CAAUAUA (DNA:RNA)
RNA: B7 RNA with G26A, C27A, C28U, U29A, C30U, G31A
DNA 1: CAATCTGAATTCCGGTCTCCC
DNA 2: TGGTGGCTACGACGGGATT
B9: CUCAUCU (DNA:RNA)
RNA: B7 RNA with G26U, C28A, G31U
DNA 1: CAATCTGAATTCCGGTCTCCC
DNA 2: TGGTGGCTACGACGGGATT

biological target: T1, RBFOX1 RRM RbFoxmut (Fox-RRM*); assay: EMSA; HiTS-Eq, 1 nM pool, 10 min; buffer printed only for the single-RNA assays: 10 mM Tris pH 7.5, 150 mM NaCl, 3.4 mM EDTA, 0.001% NP-40, 30 C; conditions: tags: His6 N-terminal (pET28a); label: 5' 32P
In short: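 Relative association constants, normalised to the cognate motif, were derived by comparing read counts of each RNA species with those of the control reaction. The RNA sequenced was the free fraction, separated by 8% native PAGE after a 10 min equilibration in 50 µL of 1 nM 5′-radiolabelled RNA (7 randomized nucleotides) with increasing concentrations of purified wild-type or mutant RbFox RRM.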

Row | Binder | binding signal
1 | B1 | 0.059 KA relative to UGCAUGU
2 | B2 | 0.202 KA relative to UGCAUGU
3 | B3 | 0.13 KA relative to UGCAUGU
4 | B4 | 0.103 KA relative to UGCAUGU
5 | B5 | 0.0966 KA relative to UGCAUGU
6 | B6 | 0.0931 KA relative to UGCAUGU
7 | B7 | 0.236 KA relative to UGCAUGU
8 | B8 | 0.155 KA relative to UGCAUGU
9 | B9 | 0.0833 KA relative to UGCAUGU
